Here are results for nine molecules from patent publication US20170029494A1, “Antigen Binding Constructs” (Glaxo Group Limited, priority 2011, published 2017).

This test has as its target T1, VEGF165 (Homo sapiens, UniProt P15692).
T1 sequence (P15692 27-191 isoform P15692-4): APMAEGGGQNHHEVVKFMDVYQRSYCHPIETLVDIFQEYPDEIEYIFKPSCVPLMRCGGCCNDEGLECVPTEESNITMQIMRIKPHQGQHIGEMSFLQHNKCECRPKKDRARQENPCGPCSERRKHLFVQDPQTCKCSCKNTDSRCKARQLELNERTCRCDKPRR
As to the kind of experiment: Biacore T100 SPR, Protein A capture, 37° C. It is filed as binding. The arrangement: made in house; host or cells: HEK293 (transient transfection). As to conditions: for Ka (M − 1 · s − 1) / Kd (s − 1): Table 11A, VEGF165 16 nM to […]. How it is done: (§1) The run was carried out at 37° C., using HBS-EP as the running buffer.
as §1, §1, §1, §1
In general terms: SPR reads the build-up and loss of mass on a sensor chip optically.

The mark [1] stands for this setting: Table 7, 1:1 Binding, VEGF165 75, 15, 3, 0.6 nM.
Where [2] appears, read: Table 5, 1:1 model, VEGF165 64 nM to […].

B1: C085 G4Sx3: C-terminal Fc fusion of K-044-085 dAb ((Gly4Ser)x3); SEQ ID NO:175 (protein)
chain: [human IgG1 Fc not shown]GGGGSGGGGSGGGGSDIQMTQSPSSLSASVGDRVTITCRASQWIGPELKWYQQKPGKAPKLLIYHGSILQSGVPSRFSGSGSGTDFTLTISSLQPEDFATYYCQQYMYYPHTFGQGTKVEIKR
modifications: C-terminal Fc fusion of K-044-085 DAB ((Gly4Ser)x3) amino acid sequence identified using molecular biology techniques.
On to B1, for which the “Ka (M − 1 · s − 1)” value is on record as 6.19E+06 M − 1 · s − 1 and the “Kd (s − 1)” value was 1.80E−04 s − 1.

B2: DMS30012: DT02-K-044-251-AAAS Linker-Fc-Albumin Domain 3 Linker-DT02-K-044-251 Vk-Vk dAb-Fc-dAb; SEQ ID NO:15 & 43 (protein)
chain: DIQMTQSPSSLSASVGDRVTITCRASQWIGPELKWYQQKPGKAPKLLIYHGSILQSGVPSRFSGSGSGTDFTLTISSLQPEDFATYYCQQYMYYPETFGQGTKVEIKRAA[human IgG1 Fc and a few adjoining residues not shown]EVDETYVPKEFNAETFTFHADDIQMTQSPSSLSASVGDRVTITCRASQWIGPELKWYQQKPGKAPKLLIYHGSILQSGVPSRFSGSGSGTDFTLTISSLQPEDFATYYCQQYMYYPETFGQGTKVEIKR
modifications: DT02-K-044-251-AAAS Linker-Fc-Albumin Domain 3 Linker-DT02-K-044-251 Vk-Vk d-Fc-dAb nucleic acid sequence identified using molecular biology techniques.
Under setting [1], B2 had a ka of 1.61E+07 and a kd of 7.39E−05.

B3: DMS30001: C-terminal Fc fusion of K-044-232 dAb (GS(TVAAPSGS)x3 Linker) Fc-dAb; SEQ ID NO:4 & 32 (protein)
chain: [human IgG1 Fc and a few adjoining residues not shown]GSTVAAPSGSTVAAPSGSTVAAPSGSDIQMTQSPSSLSASVGDRVTITCRASQWIGPELSWYQQKPGKAPKLLIYHGSILQSGVPSRFSGSGSGTDFTLTISSLQPEDFATYYCQQYMYYPETFGQGTKVEIKR
modifications: C-terminal Fc fusion of K-044-232 DAB (GS(TVAAPSGS)x3 Linker) Fc-dAb nucleic acid sequence identified using molecular biology techniques.
Under setting [2], B3 had a ka of 1.62E+07 and a kd of 3.63E−05.

B4: DMS30002: C-terminal Fc fusion of K-044-236 dAb (GS(TVAAPSGS)x3 Linker) Fc-dAb; SEQ ID NO:5 & 33 (protein)
chain: [human IgG1 Fc and a few adjoining residues not shown]GSTVAAPSGSTVAAPSGSTVAAPSGSDIQMTQSPSSLSASVGDRVTITCRASQWIGPELSWYQQKPGKAPKLLIYHGSILQSGVPSRFSGSGSGTDFTLTISSLQPEDFATYYCQQYMYYPKTFGQGTKVEIKR
modifications: C-terminal Fc fusion of K-044-236 DAB (GS(TVAAPSGS)x3 Linker) Fc-dAb nucleic acid sequence identified using molecular biology techniques.
In the case of B4, under setting [2], the ka amounted to 1.25E+07 and the kd worked out at 3.63E−05.

B5: C085 G2Sx4: probably C-terminal Fc fusion of K-044-085 dAb ((Gly4Ser)x4); SEQ ID NO:176 (protein)
chain: [human IgG1 Fc not shown]GGGGSGGGGSGGGGSGGGGSDIQMTQSPSSLSASVGDRVTITCRASQWIGPELKWYQQKPGKAPKLLIYHGSILQSGVPSRFSGSGSGTDFTLTISSLQPEDFATYYCQQYMYYPHTFGQGTKVEIKR
modifications: C-terminal Fc fusion of K-044-085 DAB ((Gly4Ser)x4) amino acid sequence identified using molecular biology techniques.
For B5, the “Ka (M − 1 · s − 1)” value is reported as 6.11E+06 M − 1 · s − 1 and the “Kd (s − 1)” value is on record as 1.41E−04 s − 1.

B6: DMS30011: DT02-K-044-251-AS Linker-Fc-Albumin Domain 3 Linker-DT02-K-044-251 Vk-Vk dAb-Fc-dAb; SEQ ID NO:14 & 42 (protein)
chain: DIQMTQSPSSLSASVGDRVTITCRASQWIGPELKWYQQKPGKAPKLLIYHGSILQSGVPSRFSGSGSGTDFTLTISSLQPEDFATYYCQQYMYYPETFGQGTKVEIKR[human IgG1 Fc and a few adjoining residues not shown]EVDETYVPKEFNAETFTFHADDIQMTQSPSSLSASVGDRVTITCRASQWIGPELKWYQQKPGKAPKLLIYHGSILQSGVPSRFSGSGSGTDFTLTISSLQPEDFATYYCQQYMYYPETFGQGTKVEIKR
modifications: DT02-K-044-251-AS Linker-Fc-Albumin Domain 3 Linker-DT02-K-044-251 Vk-Vk dAb-Fc-dAb nucleic acid sequence identified using molecular biology techniques.
Regarding B6, under setting [1], the ka is reported as 1.77E+07 and the kd is given as 8.07E−05.

B7: DMS30014: C-terminal Fc fusion of K-044-085 dAb (Albumin Domain 3 Linker) Fc-dAb; SEQ ID NO:17 & 45 (protein)
chain: [human IgG1 Fc not shown]EVDETYVPKEFNAETFTFHADDIQMTQSPSSLSASVGDRVTITCRASQWIGPELKWYQQKPGKAPKLLIYHGSILQSGVPSRFSGSGSGTDFTLTISSLQPEDFATYYCQQYMYYPHTFGQGTKVEIKR
modifications: C-terminal Fc fusion of K-044-085 DAB (Albumin Domain 3 Linker) Fc-dAb nucleic acid sequence identified using molecular biology techniques.
Consider B7, for which the “Ka (M − 1 · s − 1)” value was determined as 8.68E+06 M − 1 · s − 1 and the “Kd (s − 1)” value is “At the”.

B8: C085 Alb DOM3: C-terminal Fc fusion of K-044-085 dAb with Albumin Domain 3 derived linker (probably truncated, Alb Dom 3-TFHAD, SEQ ID NO:174) (protein)
chain: [human IgG1 Fc not shown]EVDETYVPKEFNAETFDIQMTQSPSSLSASVGDRVTITCRASQWIGPELKWYQQKPGKAPKLLIYHGSILQSGVPSRFSGSGSGTDFTLTISSLQPEDFATYYCQQYMYYPHTFGQGTKVEIKR
modifications: C-terminal Fc fusion of K-044-085 DAB (Albumin Domain 3-TFHAD) amino acid sequence identified using molecular biology techniques.
Take B8: the “Ka (M − 1 · s − 1)” value was determined as 6.17E+06 M − 1 · s − 1 and the “Kd (s − 1)” value was found to be 8.12E−05 s − 1.

B9: DMS30013: C-terminal Fc fusion of K-044-085 dAb (Albumin Domain 3 Linker) Fc-dAb; SEQ ID NO:16 & 44 (Fc starts AS) (protein)
chain: [human IgG1 Fc and a few adjoining residues not shown]EVDETYVPKEFNAETFTFHADDIQMTQSPSSLSASVGDRVTITCRASQWIGPELKWYQQKPGKAPKLLIYHGSILQSGVPSRFSGSGSGTDFTLTISSLQPEDFATYYCQQYMYYPHTFGQGTKVEIKR
modifications: C-terminal Fc fusion of K-044-085 DAB (Albumin Domain 3 Linker) Fc-dAb nucleic acid sequence identified using molecular biology techniques.
Turning to B9, the “Ka (M − 1 · s − 1)” value turned out to be 8.74E+06 M − 1 · s − 1 and the “Kd (s − 1)” value is on record as “Too tight”.
